# Some of the results follow.
# B1: Strep tagII-anxA1 (Homo sapiens), P04083 (protein)
# chain: MAMVSEFLKQAWFIENEEQEYVQTVKSSKGGPGSAVSPYPTFNPSSDVAALHKAIMVKGVDEATIIDILTKRNNAQRQQIKAAYLQETGKPLDETLKKALTGHLEEVVLALLKTPAQFDADELRAAMKGLGTDEDTLIEILASRTNKEIRDINRVYREELKRDLAKDITSDTSGDFRNALLSLAKGDRSEDFGVNEDLADSDARALYEAGERRKGTDVNVFNTILTTRSYPQLRRVFQKYTKYSKHDMNKVLDLELKGDIEKCLTAIVKCATSKPAFFAEKLHQAMKGVGTRHKALIRIMVSRSEIDMNDIKAFYQKMYGISLCQAILDETKGDYEKILVALCGGN
# How the values were obtained:
# Assay in all cases: glycan array binding signal (z-score within array); higher = stronger binding
# Conditions in all cases: glycan notation: IUPAC condensed, linker removed
# [1] = biological target: Neu5Ac(a2-3)Gal(b1-3)[Neu5Ac(a2-6)]GlcNAc(b1-3)[Fuc(a1-3)[Gal(b1-4)]GlcNAc(b1-6)]Gal(b1-4)Glc
# Outline: (§1)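 Glycan array binding is given as a within-array Z-score, which can be read as non-binding when negative. The arrays, 3228 of them, came from the Consortium for Functional Glycomics database and were retained only where the protein sequence was available. Z-scores were averaged across arrays of the same protein sequence at different concentrations or buffers and across linkers.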
# Neu5Ac(a2-3)Gal(b1-4)Glc = biological target: Neu5Ac(a2-3)Gal(b1-4)Glc
# Outline: as §1
# [2] = biological target: Neu5Ac(a2-3)Gal(b1-4)GlcNAc
# Outline: as §1
# [3] = biological target: Neu5Ac(a2-3)Gal(b1-4)GlcNAc(b1-2)Man
# Outline: as §1
# [4] = biological target: Neu5Ac(a2-3)Gal(b1-4)GlcNAc(b1-2)Man(a1-3)[GlcNAc(b1-2)Man(b1-4)GlcNAc(b1-2)Man(a1-6)]Man(b1-4)GlcNAc(b1-4)GlcNAc
# Outline: as §1
# [5] = biological target: Neu5Ac(a2-3)Gal(b1-4)GlcNAc(b1-2)Man(a1-3)[Neu5Ac(a2-3)Gal(b1-4)GlcNAc(b1-2)Man(a1-6)]Man(b1-4)GlcNAc(b1-4)[Fuc(a1-6)]GlcNAc
# Outline: as §1
# [6] = biological target: Neu5Ac(a2-3)Gal(b1-4)GlcNAc(b1-2)Man(a1-3)[Neu5Ac(a2-6)Gal(b1-4)GlcNAc(b1-2)Man(a1-6)]Man(b1-4)GlcNAc(b1-4)GlcNAc
# Outline: as §1
# [7] = biological target: Neu5Ac(a2-3)Gal(b1-4)GlcNAc(b1-2)[Neu5Ac(a2-3)Gal(b1-4)GlcNAc(b1-6)]Man(a1-6)[Neu5Ac(a2-3)Gal(b1-4)GlcNAc(b1-2)Man(a1-3)]Man(b1-4)GlcNAc(b1-4)GlcNAc
# Outline: as §1
# [8] = biological target: Neu5Ac(a2-3)Gal(b1-4)GlcNAc(b1-3)Gal
# Outline: as §1
# [9] = biological target: Neu5Ac(a2-3)Gal(b1-4)GlcNAc(b1-3)Gal(b1-3)GlcNAc
# Outline: as §1
# [10] = biological target: Neu5Ac(a2-3)Gal(b1-4)GlcNAc(b1-3)Gal(b1-4)GlcNAc
# Outline: as §1
# [11] = biological target: Neu5Ac(a2-3)Gal(b1-4)GlcNAc(b1-3)Gal(b1-4)GlcNAc(b1-3)Gal(b1-4)GlcNAc
# Outline: as §1
# [12] = biological target: Neu5Ac(a2-3)Gal(b1-4)GlcNAc(b1-3)Gal(b1-4)[Fuc(a1-3)]GlcNAc
# Outline: as §1
# [13] = biological target: Neu5Ac(a2-3)Gal(b1-4)GlcNAc(b1-3)GalNAc
# Outline: as §1
# [14] = biological target: Neu5Ac(a2-3)Gal(b1-4)GlcNAc(b1-3)[Neu5Ac(a2-3)Gal(b1-4)GlcNAc(b1-6)]GalNAc
# Outline: as §1
# [15] = biological target: Neu5Ac(a2-3)Gal(b1-4)GlcNAc(b1-6)GalNAc
# Outline: as §1
# [16] = biological target: Neu5Ac(a2-3)Gal(b1-4)GlcNAc(b1-6)[Gal(b1-3)]GalNAc
# Outline: as §1
# [17] = biological target: Neu5Ac(a2-3)Gal(b1-4)GlcNAc(b1-6)[Neu5Ac(a2-3)Gal(b1-3)]GalNAc
# Outline: as §1
# [18] = biological target: Neu5Ac(a2-3)Gal(b1-4)GlcNAc6S
# Outline: as §1
# [19] = biological target: Neu5Ac(a2-3)Gal(b1-4)[Fuc(a1-3)]GlcNAc
# Outline: as §1
# [20] = biological target: Neu5Ac(a2-3)Gal(b1-4)[Fuc(a1-3)]GlcNAc(b1-3)Gal
# Outline: as §1
# [21] = biological target: Neu5Ac(a2-3)Gal(b1-4)[Fuc(a1-3)]GlcNAc(b1-3)Gal(b1-4)GlcNAc
# Outline: as §1
# [22] = biological target: Neu5Ac(a2-3)Gal(b1-4)[Fuc(a1-3)]GlcNAc(b1-3)Gal(b1-4)[Fuc(a1-3)]GlcNAc(b1-3)Gal(b1-4)[Fuc(a1-3)]GlcNAc
# Outline: as §1
# [23] = biological target: Neu5Ac(a2-3)Gal(b1-4)[Fuc(a1-3)]GlcNAc(b1-3)GalNAc
# Outline: as §1
# [24] = biological target: Neu5Ac(a2-3)Gal(b1-4)[Fuc(a1-3)]GlcNAc(b1-6)[Gal(b1-3)]GalNAc
# Outline: as §1
# [25] = biological target: Neu5Ac(a2-3)Gal(b1-4)[Fuc(a1-3)]GlcNAc6S
# Outline: as §1
# [26] = biological target: Neu5Ac(a2-3)Gal6S(b1-4)GlcNAc
# Outline: as §1
# [27] = biological target: Neu5Ac(a2-3)Gal6S(b1-4)[Fuc(a1-3)]GlcNAc
# Outline: as §1
# Neu5Ac(a2-3)GalNAc = biological target: Neu5Ac(a2-3)GalNAc
# Outline: as §1
# [28] = biological target: Neu5Ac(a2-3)GalNAc(b1-4)GlcNAc
# Outline: as §1
# [29] = biological target: Neu5Ac(a2-3)[GalNAc(b1-4)]Gal(b1-4)Glc
# Outline: as §1
# [30] = biological target: Neu5Ac(a2-3)[GalNAc(b1-4)]Gal(b1-4)GlcNAc
# Outline: as §1
# [31] = biological target: Neu5Ac(a2-3)[GalNAc(b1-4)]Gal(b1-4)GlcNAc(b1-3)GalNAc
# Outline: as §1
# [32] = biological target: Neu5Ac(a2-3)[Neu5Ac(a2-6)]GalNAc
# Outline: as §1
# Neu5Ac(a2-6)Gal = biological target: Neu5Ac(a2-6)Gal
# Outline: as §1
# [33] = biological target: Neu5Ac(a2-6)Gal(b1-3)GlcNAc(b1-3)[Gal(b1-4)GlcNAc(b1-6)]Gal(b1-4)Glc
# Outline: as §1
# Neu5Ac(a2-6)Gal(b1-4)Glc = biological target: Neu5Ac(a2-6)Gal(b1-4)Glc
# Outline: as §1
# [34] = biological target: Neu5Ac(a2-6)Gal(b1-4)GlcNAc
# Outline: as §1
# [35] = biological target: Neu5Ac(a2-6)Gal(b1-4)GlcNAc(b1-2)Man(a1-3)Man(b1-4)GlcNAc(b1-4)GlcNAc
# Outline: as §1
# [36] = biological target: Neu5Ac(a2-6)Gal(b1-4)GlcNAc(b1-2)Man(a1-3)[Gal(b1-4)GlcNAc(b1-2)Man(a1-6)]Man(b1-4)GlcNAc(b1-4)GlcNAc
# Outline: as §1
# [37] = biological target: Neu5Ac(a2-6)Gal(b1-4)GlcNAc(b1-2)Man(a1-3)[GlcNAc(b1-2)Man(a1-6)]Man(b1-4)GlcNAc(b1-4)GlcNAc
# Outline: as §1
# [38] = biological target: Neu5Ac(a2-6)Gal(b1-4)GlcNAc(b1-2)Man(a1-3)[GlcNAc(b1-2)Man(b1-4)GlcNAc(b1-2)Man(a1-6)]Man(b1-4)GlcNAc(b1-4)GlcNAc
# Outline: as §1
binder,measurement,setting,value
B1,glycan array binding signal (z-score),[1],0.429
same,glycan array binding signal (z-score),Neu5Ac(a2-3)Gal(b1-4)Glc,-0.677
same,glycan array binding signal (z-score),[2],-0.209
same,glycan array binding signal (z-score),[3],0.94
same,glycan array binding signal (z-score),[4],-0.74
same,glycan array binding signal (z-score),[5],-0.335
same,glycan array binding signal (z-score),[6],-0.474
same,glycan array binding signal (z-score),[7],2.52
same,glycan array binding signal (z-score),[8],-0.629
same,glycan array binding signal (z-score),[9],-0.641
same,glycan array binding signal (z-score),[10],-0.689
same,glycan array binding signal (z-score),[11],-0.732
same,glycan array binding signal (z-score),[12],-0.696
same,glycan array binding signal (z-score),[13],-0.459
same,glycan array binding signal (z-score),[14],-0.103
same,glycan array binding signal (z-score),[15],-0.535
same,glycan array binding signal (z-score),[16],-0.534
same,glycan array binding signal (z-score),[17],-0.525
same,glycan array binding signal (z-score),[18],-0.626
same,glycan array binding signal (z-score),[19],-0.546
same,glycan array binding signal (z-score),[20],-0.494
same,glycan array binding signal (z-score),[21],-0.575
same,glycan array binding signal (z-score),[22],-0.668
same,glycan array binding signal (z-score),[23],0.181
same,glycan array binding signal (z-score),[24],-0.451
same,glycan array binding signal (z-score),[25],-0.736
same,glycan array binding signal (z-score),[26],-0.312
same,glycan array binding signal (z-score),[27],-0.726
same,glycan array binding signal (z-score),Neu5Ac(a2-3)GalNAc,-0.592
same,glycan array binding signal (z-score),[28],-0.385
same,glycan array binding signal (z-score),[29],-0.206
same,glycan array binding signal (z-score),[30],-0.579
same,glycan array binding signal (z-score),[31],-0.294
same,glycan array binding signal (z-score),[32],-0.317
same,glycan array binding signal (z-score),Neu5Ac(a2-6)Gal,-0.44
same,glycan array binding signal (z-score),[33],-0.737
same,glycan array binding signal (z-score),Neu5Ac(a2-6)Gal(b1-4)Glc,0.446
same,glycan array binding signal (z-score),[34],0.201
same,glycan array binding signal (z-score),[35],-0.177
same,glycan array binding signal (z-score),[36],0.553
same,glycan array binding signal (z-score),[37],-0.496
same,glycan array binding signal (z-score),[38],-0.171

# Reference: the supplement of paper PMC8728848
